Laboratory results: publication PMC5217008
Results are given in words; binding and its absence hold for the method and conditions named. Binding seen in cells or lysates may run through a third protein. Some entries that bind do so weakly or less than the wild type.

Sequences of proteins named here, by UniProt entry; tags and fusion partners are left off. A change or cut given only in a name is not applied to a line headed by its entry.
UniProt P42229: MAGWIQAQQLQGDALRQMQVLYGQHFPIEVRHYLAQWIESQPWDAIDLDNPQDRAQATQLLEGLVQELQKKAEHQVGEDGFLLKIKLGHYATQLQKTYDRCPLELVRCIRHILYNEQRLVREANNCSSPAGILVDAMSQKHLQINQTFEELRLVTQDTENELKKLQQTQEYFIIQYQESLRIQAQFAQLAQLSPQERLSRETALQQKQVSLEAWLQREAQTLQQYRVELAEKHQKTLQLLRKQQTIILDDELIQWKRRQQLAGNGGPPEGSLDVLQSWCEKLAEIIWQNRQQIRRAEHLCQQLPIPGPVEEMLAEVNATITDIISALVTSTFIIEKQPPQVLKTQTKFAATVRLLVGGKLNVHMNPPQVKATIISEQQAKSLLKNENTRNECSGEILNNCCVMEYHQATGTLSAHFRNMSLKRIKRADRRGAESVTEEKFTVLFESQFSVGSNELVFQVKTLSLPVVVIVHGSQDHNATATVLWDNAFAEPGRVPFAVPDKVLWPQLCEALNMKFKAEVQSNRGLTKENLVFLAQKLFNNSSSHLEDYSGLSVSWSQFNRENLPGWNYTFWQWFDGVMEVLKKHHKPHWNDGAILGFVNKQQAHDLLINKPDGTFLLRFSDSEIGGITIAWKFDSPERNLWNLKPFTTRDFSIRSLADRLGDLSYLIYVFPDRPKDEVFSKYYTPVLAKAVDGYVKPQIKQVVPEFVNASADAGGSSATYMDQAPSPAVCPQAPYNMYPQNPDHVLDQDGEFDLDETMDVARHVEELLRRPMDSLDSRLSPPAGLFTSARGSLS
UniProt P14618: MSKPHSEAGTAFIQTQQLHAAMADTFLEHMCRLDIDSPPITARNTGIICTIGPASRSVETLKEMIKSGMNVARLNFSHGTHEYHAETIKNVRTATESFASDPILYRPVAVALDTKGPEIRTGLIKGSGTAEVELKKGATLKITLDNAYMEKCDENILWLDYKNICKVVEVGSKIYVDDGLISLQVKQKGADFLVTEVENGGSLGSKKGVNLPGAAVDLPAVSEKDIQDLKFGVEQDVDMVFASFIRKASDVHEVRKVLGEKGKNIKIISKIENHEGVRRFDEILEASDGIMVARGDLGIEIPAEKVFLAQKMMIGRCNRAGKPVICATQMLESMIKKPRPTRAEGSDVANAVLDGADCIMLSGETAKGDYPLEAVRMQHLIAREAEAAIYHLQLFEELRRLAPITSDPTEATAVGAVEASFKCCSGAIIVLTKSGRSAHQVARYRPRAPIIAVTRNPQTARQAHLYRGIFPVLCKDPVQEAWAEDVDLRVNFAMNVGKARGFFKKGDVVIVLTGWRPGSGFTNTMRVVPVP

Tests used:
[1] = biological target: endogenous STAT5A (human (endogenous in NCI-H1299)) (UniProt P42229); assay: co-IP; cells transfected with wild-type, S202A or S202D PKM2 vectors, with or without IGF-1 for 30 min; immunoprecipitated with STAT5A-specific antibody; western blot with anti-PKM2 antibody
[2] = biological target: Myc/His-tagged wild-type PKM2 (UniProt P14618); assay: co-IP; anti-Myc antibody; lysates of cells expressing Myc/His-PKM2 and/or STAT5A, with or without IGF-1
[3] = biological target: Flag-tagged pyruvate kinase muscle type 2 (PKM2) (UniProt P14618); assay: co-IP; nuclear fraction (nuclear extracts) of cells treated with IGF-1
[4] = biological target: Flag-tagged pyruvate kinase muscle type 2 (PKM2) (UniProt P14618); assay: co-IP; H1299 cells transfected with Flag-PKM2, starved, with or without IGF-1 (200 ng/ml); RIPA lysate; anti-Flag beads, 12 h at 4°C; eluted with Flag peptide (0.1 mg/ml); western blot with anti-AKT or STAT5A antibody

Row | Substance | binding [1] | other results
1 | Myc/His-tagged wild-type PKM2 (from UniProt P14618 1-531) (enzyme) | binds | 
2 | PKM2(S202A) (from UniProt P14618 1-531) (enzyme) | no binding | 
3 | PKM2(S202D), phosphorylation mimetic mutant (from UniProt P14618 1-531) (enzyme) | binds | 
4 | STAT5A expressed from a transfected vector (from UniProt P42229 1-794) |  | binding [2]: binds
5 | endogenous STAT5A (from UniProt P42229 1-794) |  | binding [3]: binds; binding [4]: binds
